Measured values from patent US20100184652.

Columns and labels:
[1] = target: T1, Y213 peptide (14-residue Abi1 peptide containing nonphosphorylated tyrosine 213)
T1 chain: VKPPTVPNDYMTSP

[2] = target: T2, pY213 peptide (14-residue Abi1 peptide containing phosphorylated tyrosine 213)
T2 chain: VKPPTVPNDYMTSP

[3] = target: T3, biotinylated model substrate peptide GGEAIYAAPFKK
T3 chain: GGEAIYAAPFKK

[4] = target: T4, F213 peptide (14-residue Abi1 peptide with tyrosine to phenylalanine replacement at position 213)
T4 chain: VKPPTVPNDFMTSP

B1: His-tagged, uncapped active c-Abl, E46 through C-terminus (isoform 1b) (protein)
chain: EALQRPVASDFEPQGLSEAARWNSKENLLAGPSE[left out - about 60 residues]LEKHSWYHGPVSRNAAEYLLSSGINGSFLVRESESSPGQRSISLRYEGRVYHYRINTASDGKLYVSSESRFNTLAELVHHHSTVADGLITTLHYPAPKRNKPTVYGVSPNYDKWEMERTDITMKHKLGGGQYGEVYEGVWKKYSLTVAVKTLKEDTMEVEEFLKEAAVMKEIKHPNLVQLLGVCTREPPFYIITEFMTYGNLLDYLRECNRQEVNAVVLLYMATQISSAMEYLEKKNFIHRDLAARNCLVGENHLVKVADFGLSRLMTGDTYTAHAGAKFPIKWTAPESLAYNKFSIKSDVWAFGVLLWEIATYGMSPYPGIDLSQVYELLEKDYRMERPEGCPEKVYELMRACWQWNPSDRPSFAEIHQAFETMFQESSISDEVEKELGKQGVRGAVSTLLQAPELPTKTRTSRRAAEHRDTTDVPEMPHSKGQGESDPLDHEPAVSPLLPRKERGPPEGGLNEDERLLPKDKKTNLFSALIKKKKKTAPTPPKRSSSFREMDGQPERRGAGEEEGRDISNGALAFTPLDTADPAKSPKPSNGAGVPNGALRESGGSGFRSPHLWKKSSTLTSSRLATGEEEGGGSSSKRFLRSCSASCVPHGAKDTEWRSVTLPRDLQSTGRQFDSSTFGGHKSEKPALPRKRAGENRSDQVTRGTVTPPPRLVKKNEEAADEVFKDIMESSPGSSPPNLTPKPLRRQVTVAPASGLPHKEEAGKGSALGTPAAAEPVTPTSKAGSGAPGGTSKGPAEESRVRRHKHSSESPGRDKGKLSRLKPAPPPPPAASAGKAGGKPSQSPSQEAAGEAVLGAKTKATSLVDAVNSDAAKPSQPGEGLKKPVLPATPKPQSAKPSGTPISPAPVPSTLPSASSALAGDQPSSTAFIPLISTRVSLRKTRQPPERIASGAITKGVVLDSTEALCLAISRNSEQMASHSAVLEAGKNLYTFCVSYVDSIQQMRNKFAFREAINKLENNLRELQICPATAGSGPAATQDFSKLLSSVKEISDIVQR
- Fold Change (PEP) of Vmax with Y213 at 0.1 mM [1]: 0.71 fold
- Fold Change (PEP) of Vmax with Y213 at 0.25 mM [1]: 0.55 fold
- Fold Change (PEP) of Vmax with Y213 at 2.0 mM [1]: 0.018 fold
- Km (µM) of the substrate peptide with Y213 at 0.1 mM [1]: 14.9 µM
- Km (µM) of the substrate peptide with Y213 at 0.25 mM [1]: 16.5 µM
- Km (µM) of the substrate peptide with Y213 at 2.0 mM [1]: 16.3 µM
- Vmax (pmol/min-µg) of c-Abl with Y213 at 0.1 mM [1]: 112 pmol/min-µg
- Vmax (pmol/min-µg) of c-Abl with Y213 at 0.25 mM [1]: 86.7 pmol/min-µg
- Vmax (pmol/min-µg) of c-Abl with Y213 at 2.0 mM [1]: 2.9 pmol/min-µg
- Fold Change (PEP) of Vmax with pY213 at 2 mM [2]: 0.62 fold
- Km (µM) of the substrate peptide with pY213 at 2 mM [2]: 24.9 µM
- Vmax (pmol/min-µg) of c-Abl with pY213 at 2 mM [2]: 97.5 pmol/min-µg
- Fold Change (PEP) of Vmax, substrate peptide alone [3]: 1 fold
- Km (µM) of the substrate peptide [3]: 21.2 µM
- Vmax (pmol/min-µg), substrate peptide alone [3]: 158 pmol/min-µg
- Fold Change (PEP) of Vmax with F213 at 2 mM [4]: 1.03 fold
- Km (µM) of the substrate peptide with F213 at 2 mM [4]: 25.8 µM
- Vmax (pmol/min-µg) of c-Abl with F213 at 2 mM [4]: 163 pmol/min-µg
